Laboratory results as given in article PMC4336329 (PLoS ONE, 2015).
In all, about 310,000 compounds went through this assay and about 2,200 (0.71%) showed an effect of 50% or more. Effects have a minus sign here. Some of the results follow.

Each compound was assayed against human ether-à-go-go-related gene (hERG) potassium channel (human, UniProt Q12809) (assay: primary screen, population patch clamp on CHO cells stably expressing hERG).
human ether-à-go-go-related gene (hERG) potassium channel, sequence (Q12809 whole entry, looked up): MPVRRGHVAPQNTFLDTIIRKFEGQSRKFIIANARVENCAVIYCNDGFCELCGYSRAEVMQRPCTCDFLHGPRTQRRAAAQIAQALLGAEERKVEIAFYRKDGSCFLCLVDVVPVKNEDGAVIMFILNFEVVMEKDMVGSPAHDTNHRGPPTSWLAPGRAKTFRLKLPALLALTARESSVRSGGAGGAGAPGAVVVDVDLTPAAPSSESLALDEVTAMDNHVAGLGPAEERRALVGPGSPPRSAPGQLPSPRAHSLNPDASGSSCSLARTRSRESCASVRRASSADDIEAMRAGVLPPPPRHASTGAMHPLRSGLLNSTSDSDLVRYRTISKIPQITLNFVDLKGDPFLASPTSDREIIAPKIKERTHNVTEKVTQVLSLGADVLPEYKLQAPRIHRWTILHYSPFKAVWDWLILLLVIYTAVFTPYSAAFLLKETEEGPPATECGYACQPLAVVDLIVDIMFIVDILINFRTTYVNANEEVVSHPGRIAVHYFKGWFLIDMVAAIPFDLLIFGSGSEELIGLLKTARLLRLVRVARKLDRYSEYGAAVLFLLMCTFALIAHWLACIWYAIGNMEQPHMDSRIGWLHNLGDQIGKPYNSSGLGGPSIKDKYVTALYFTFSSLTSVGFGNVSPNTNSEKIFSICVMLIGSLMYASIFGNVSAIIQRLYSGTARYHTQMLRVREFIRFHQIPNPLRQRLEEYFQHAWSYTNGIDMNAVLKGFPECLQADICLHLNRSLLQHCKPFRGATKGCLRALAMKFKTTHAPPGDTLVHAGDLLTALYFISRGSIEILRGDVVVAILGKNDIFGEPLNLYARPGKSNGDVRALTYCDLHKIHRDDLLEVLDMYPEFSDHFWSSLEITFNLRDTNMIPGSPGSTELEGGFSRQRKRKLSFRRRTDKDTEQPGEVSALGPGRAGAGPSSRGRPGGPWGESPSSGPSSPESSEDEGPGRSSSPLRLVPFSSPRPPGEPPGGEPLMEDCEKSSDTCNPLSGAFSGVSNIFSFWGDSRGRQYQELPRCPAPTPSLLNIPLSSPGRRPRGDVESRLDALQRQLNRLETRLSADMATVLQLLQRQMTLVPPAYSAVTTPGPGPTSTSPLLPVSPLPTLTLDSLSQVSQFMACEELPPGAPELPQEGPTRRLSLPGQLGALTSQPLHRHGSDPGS

SMILES | hERG current change (%, negative = inhibition) at 1uM [%]
CC(=O)Nc1cc(S(=O)(=O)C(F)(F)F)ccc1Cl | 9.59
Cc1nonc1OCC(C)(COc1nonc1C)NC(=O)c1ccccc1 | 10.6
O=C(C[n+]1ccc(-c2cc(C(=O)Nc3cccc(C(F)(F)F)c3)c3ccccc3n2)cc1)c1cccc([N+](=O)[O-])c1.[Br-] | 7.93
CCCS(=O)(=O)N1CCC(C(=O)N2CCN(Cc3ccccc3)CC2)CC1 | 5.77
COc1cccc(CN2C(=O)[C@H]3Cc4c([nH]c5ccccc45)C(C)(C)N3C2=O)c1 | 15.2
Cc1nn(S(=O)(=O)c2ccc(Cl)cc2)c(C)c1Sc1ccc([N+](=O)[O-])cc1 | 9.27
O=C(c1ccccc1-c1nc(-c2ccc(F)cc2)no1)N1CCCC1 | -0.0459
CCOC(=O)c1cc2c(nc1N)CC(C)(CC)OC2 (stereo not shown) | 8.77
Cc1cc(N2CCOCC2)nc(N2CCOCC2)n1 | 12.7
CC(C)c1ccc(NC(=O)C[n+]2ccn(C3=C([O-])c4ccccc4C3=O)c2)cc1 | 11.2
CN(C)C(=O)Cn1cc(S(=O)(=O)Cc2ccccc2)c2ccccc21 | 10.6
CCc1n[nH]c(CCN)n1.Cl | 14.8
CCOc1ccccc1C(=O)N1CCN(c2cccc(Cl)c2)CC1 | 4.05
Cc1ccc(C)c(NC(=O)CCOc2ccccc2)c1 | 13
O=C(c1ccc(Br)cc1)c1cc2ccc(O)cc2oc1=O | 12.7
COc1ccc(-c2nc(C#N)c(N3CCc4ccccc4C3)o2)cc1OC | -2.91
Cc1ccc(OCc2cc(C(=O)NCC(C)(C)N3CCOCC3)no2)cc1C | 4.83
O=C(NCc1nnc(SCc2ccccc2)n1-c1ccc(F)cc1)C12CC3CC(CC(C3)C1)C2 | 10.1
Cc1ccc(OCc2cc(C(=O)N(C)Cc3nccn3C)no2)cc1C | 6.89
CC(C)(C)C(=O)/C=c1\[nH]c(=O)/c(=C\c2ccc(C#N)cc2)s1 | 3.56
Cc1nc(CCNC(=O)CC2C(=O)NCCN2Cc2ccccc2)sc1C (stereo not shown) | 7.68
CCOC(=O)N1CCN(c2c(N3CCN(c4ccccc4OC)CC3)c(=O)c2=O)CC1 | 5.69
O=C(CSc1nnc(-c2ccncc2)o1)Oc1ccccc1 | 15.1
Cc1ccc(CNS(=O)(=O)c2ccc3c(c2)N(C)CCO3)cc1 | 17.8
Cc1ccccc1NC(=O)N1CCNC(=O)C1CC(=O)Nc1cc(Cl)ccc1Cl (stereo not shown) | -0.886
CC(C)(C)OC(=O)NCCCC[C@H](NC(=O)c1nc[nH]c1C(=O)NCc1ccccc1)C(=O)OC(C)(C)C | 4.2
CCC1CCCCN1Cc1nc(Cc2ccccc2Cl)no1 (stereo not shown) | 4.88
COc1ccc(N2CCN(S(=O)(=O)c3cc4c(cc3C)NC(=O)CO4)CC2)cc1 | 8.04

SMILES | hERG current change (%, negative = inhibition) at 1uM [%]
COc1ccc(S(=O)(=O)NC2(C(F)(F)F)N=C3SCCN3C2=O)cc1 (stereo not shown) | 12.9
Cc1nc2ccccn2c1/C(O)=C1\C(=O)C(=O)N(CCN2CCOCC2)C1c1cccs1 (stereo not shown) | -5.23
CC(C)CN(C(=O)COC(=O)CSc1ccc([N+](=O)[O-])cc1)C1CCS(=O)(=O)C1 (stereo not shown) | -22.8
CC(C)Oc1ccc(C(=O)Nc2ccccc2N2CCCC2)cc1 | 3.44
CCCCN(C)Cc1c(C)[nH]c2ccc(Cl)cc2c1=O | -6.49
O=[N+]([O-])c1cc(-n2cnnn2)c(O)c([N+](=O)[O-])c1 | 15.4
Cc1cccc(NS(=O)(=O)c2ccc3c(c2)CCC(=O)N3)c1 | 10.6
COc1cc2c(C(=O)NCCN(C)C)cn(CC(C)C)c(=O)c2cc1OC | 12.2
O=C(CCc1ccccc1)Nc1ccc(NS(=O)(=O)c2ccccc2)cc1 | 10.5
CCN(CC)C(=O)c1ccccc1NC(=O)c1ccccc1C | 19.7
Cc1ccc2oc(C(=O)NCc3ccccc3)cc(=O)c2c1 | 11.4
CCN(CC)C(=O)c1ccc(NC(=O)c2ccc(N3CCCC3=O)cc2)cc1 | 12.8
CCOC(=O)C1CCN(C(=O)Cc2cccc3ccccc23)CC1 | 5.1
O=S(=O)(c1ccccc1)[C@@]1(c2ccc(Br)cc2)C[C@@H]2ON=C(c3ccccc3)[C@@H]2C1 | -3.85
CCS(=O)(=O)N1CCC(C(=O)NCc2ccc3c(c2)OCO3)CC1 | 6.78
CCN(CC)CCn1c2ccc(F)cc2c2nc(C)sc21.Cl | -15.1
COc1ccc(CC(=O)OCC(=O)c2c(N)n(C)c(=O)n(C)c2=O)cc1OC | 8.06
Cc1noc(C)c1S(=O)(=O)N1CCCCC1 | 11.5
CCCOc1ccc(S(=O)(=O)n2cc(F)c(=O)[nH]c2=O)cc1 | 18.2
O=C(NC1(O)C(=O)c2ccccc2C1=O)c1ccc(C(F)(F)F)cc1 | 10.3
CCCn1c(C)cc(C(=O)COC(=O)c2ccc[nH]c2=O)c1C | 11.6
C#CCOc1ccc(OC)cc1C(c1c(C)[nH][nH]c1=O)c1c(C)[nH][nH]c1=O | 13.5
COc1ccc(CNC(=O)C(C)OC(=O)CO/N=C(\C)c2ccc3c(c2)OCO3)cc1 (stereo not shown) | 11
CC1CCC(C(C)C)C(OC(=O)Cn2c(-c3ccc(Br)cc3)[n+](C)c3ccccc32)C1.[Cl-] (stereo not shown) | -60.7
COc1ccc(COC(=O)Nc2cn(C)nc2C(F)(F)F)cc1 | 3.22
O=C(/C=C/c1ccccc1)NC(=S)NNC(=O)c1ccco1 | 18.1
CCN(C(=O)COC(=O)c1cc2ccccc2cc1O)C1CCS(=O)(=O)C1 (stereo not shown) | 4.98
